# Out of some 310,000 compounds screened, about 14,000 (4.5%) showed an effect of 50% or more. Effects have a minus sign here. This is one part of the list.
# Biological target: human ether-à-go-go-related gene (hERG) potassium channel (human, UniProt Q12809)
# Assay: primary screen, population patch clamp on CHO cells stably expressing hERG
# 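Also: peak tail current of the secondary pulse compared with the same well before compound.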
# Chain of human ether-à-go-go-related gene (hERG) potassium channel (Q12809 whole entry, looked up): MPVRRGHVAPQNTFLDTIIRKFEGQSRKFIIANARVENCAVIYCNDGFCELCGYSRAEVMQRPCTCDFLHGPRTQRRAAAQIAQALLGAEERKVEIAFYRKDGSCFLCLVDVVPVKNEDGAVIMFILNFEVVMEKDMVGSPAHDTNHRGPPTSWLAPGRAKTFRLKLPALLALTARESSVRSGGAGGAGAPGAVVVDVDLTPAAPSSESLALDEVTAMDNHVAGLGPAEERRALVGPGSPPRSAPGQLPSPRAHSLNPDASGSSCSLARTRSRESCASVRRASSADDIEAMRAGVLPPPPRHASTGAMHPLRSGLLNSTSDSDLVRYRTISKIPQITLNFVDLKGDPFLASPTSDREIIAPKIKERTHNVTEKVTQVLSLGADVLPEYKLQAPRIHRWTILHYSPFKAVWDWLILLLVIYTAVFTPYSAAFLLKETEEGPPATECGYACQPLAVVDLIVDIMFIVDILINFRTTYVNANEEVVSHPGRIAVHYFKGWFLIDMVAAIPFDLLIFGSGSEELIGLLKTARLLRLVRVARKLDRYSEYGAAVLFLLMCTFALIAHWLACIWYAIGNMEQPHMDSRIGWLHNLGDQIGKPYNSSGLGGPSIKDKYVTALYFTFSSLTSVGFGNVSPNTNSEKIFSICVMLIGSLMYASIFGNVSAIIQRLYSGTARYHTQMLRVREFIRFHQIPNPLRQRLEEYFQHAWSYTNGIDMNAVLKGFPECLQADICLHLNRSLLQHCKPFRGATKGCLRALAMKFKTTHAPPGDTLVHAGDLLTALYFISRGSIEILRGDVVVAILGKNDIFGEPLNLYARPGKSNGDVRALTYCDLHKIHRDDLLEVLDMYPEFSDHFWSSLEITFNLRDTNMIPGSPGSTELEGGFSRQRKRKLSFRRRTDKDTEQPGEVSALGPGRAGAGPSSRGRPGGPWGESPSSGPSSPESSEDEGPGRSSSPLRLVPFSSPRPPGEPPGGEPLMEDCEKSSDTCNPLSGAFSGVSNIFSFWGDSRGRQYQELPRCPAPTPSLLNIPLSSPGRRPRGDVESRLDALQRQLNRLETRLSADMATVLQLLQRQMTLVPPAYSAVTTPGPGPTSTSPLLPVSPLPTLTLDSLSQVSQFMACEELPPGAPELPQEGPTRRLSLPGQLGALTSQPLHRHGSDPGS
row,Compound,"hERG current change (%, negative = inhibition) at 10uM [%]"
1,Cc1ccc(S(=O)(=O)N(C)c2ccc(C(=O)NCCc3ccccc3)cc2)cc1,-6.94
2,O=S(=O)(Nc1ncccn1)c1ccc(NS(=O)(=O)c2cc(Cl)ccc2Cl)cc1,31.6
3,CN1C(=O)S/C(=C\c2ccccc2OCc2ccc(C(=O)O)cc2)C1=O,3.52
4,CCOc1ccc(NC(=O)CC2SC(=O)N(c3ccccc3)C2=O)cc1 (stereo not shown),17.2
5,COCCNC(=O)C(c1cccs1)N(C(=O)Cn1nnc2ccccc21)c1cccc(C(C)=O)c1 (stereo not shown),12.5
6,CC(=O)N1CCc2c(sc(NC(=O)CS(=O)(=O)c3ccc(F)cc3)c2C#N)C1,-12.6
7,Cc1ccc(COc2ccsc2C(=O)NNC(N)=S)cc1,19.9
8,O=C(c1cc2sccc2n1Cc1ccccc1)N1CCc2ccccc21,-2.82
9,O=C(c1cnc(-c2ccccc2)s1)c1ccc(Cl)cc1Cl,-7.87
10,CC1(C)CC(=O)C2=C(C1)OC(N)=C(C#N)C21CCC2(CC1)OCCO2,6.25
11,COc1ccc(CNC(=O)Nc2ccc([N+](=O)[O-])cc2)cc1,5.47
12,Cn1c(=O)c2c(nc(CN3CCN(C(=O)c4ccco4)CC3)n2Cc2ccccc2F)n(C)c1=O,-47.6
13,O=C(Nc1ccc2c(c1)OCCO2)C1CCC1,7.7
14,O=C(COc1cccc2ccccc12)NNC(=O)Nc1ccccc1,2.05
15,CNC(=O)COc1ccc(S(=O)(=O)N2CCCC2)cc1,18.1
16,CC(C(=O)NCCS(=O)(=O)c1ccc(Cl)cc1)S(=O)(=O)c1ccccc1 (stereo not shown),-4.41
17,Cc1cn(C(=O)c2ccccc2)c(=S)n1-c1ccc(Cl)cc1,-9.79
18,COc1ccc(CCn2c(=S)[nH]c3cc(C(=O)N4CCOCC4)ccc3c2=O)cc1OC,-6.76
19,COc1ccccc1CNC(=O)C1CC2Cn3c(nc4cc(Cl)c(Cl)cc43)C2N1C (stereo not shown),-65.4
20,Cc1ccc(NC(=O)c2cc(S(=O)(=O)N3CCCC3)c[nH]2)c(C)c1,-11.8
21,COC(C[C@H](O)C[C@H](O)[C@@H](C)OCc1ccccc1)OC,14.3
22,Cc1ccc(SCCC(=O)N/N=C/c2cccnc2)cc1,-24.9

row,Compound,"hERG current change (%, negative = inhibition) at 10uM [%]"
1,O=c1o[nH]c(-c2ccccc2)c1C=Nc1ccc(Cl)cc1,-5.87
2,CCCCCn1c(NC(=O)c2ccco2)c(C(=O)OCC)c2nc3ccccc3nc21,-80.4
3,COc1ccc(S(=O)(=O)Cc2ccccc2)cc1N,-9.73
4,COc1cccc(-c2nn(C)c3sc(C(=O)NCc4ccccn4)cc23)c1,0.494
5,COC(=O)c1ccc(-c2ccc(/C=N/N3C(=O)C4C5C=CC(C6CC56)C4C3=O)o2)cc1 (stereo not shown),-2.94
6,COCCNC(=O)c1ccc(CS(=O)(=O)c2cccc(C(F)(F)F)c2)o1,4.09
7,CCC(C)[C@H](NC(=O)N1CC(=O)Nc2ccccc21)C(=O)N1CCC[C@@H]1C(=O)O (stereo partly shown),13.5
8,O=c1oc(-c2ccccc2)nc2sc3c(c12)CCCC3,14.9
9,O=C(c1ccco1)N1CCN(S(=O)(=O)c2ccc(F)cc2)CC1,-2.41
10,Cc1ccc(-c2ccc(=O)n(CC(=O)Nc3cccc(C(=O)N4CCN(C)CC4)c3)n2)cc1,-9.15
11,COc1ccc(Br)cc1S(=O)(=O)n1ccnc1,23
12,NS(=O)(=O)c1cc(Cl)c(Cl)c(S(N)(=O)=O)c1,1.33
13,Cc1cccc(NC(=S)N/N=C/c2c[nH]c3ccccc23)c1,6.08
14,O=C(NNC(=O)C1CC1c1ccccc1)Nc1ccccc1 (stereo not shown),6.07
15,c1ccc(-c2nnc3ccc(N4CCC5(CC4)OCCO5)nn23)cc1,-46.8
16,N#CC1=C(N)C(C#N)(C#N)[C@H](c2ccncc2)[C@H]2CC3(CC=C12)OCCO3,2.57
17,COc1ccc2nc(NC(=O)CSc3cn[nH]n3)sc2c1,4.71
18,COc1ccc(-n2c(-c3ccccc3)nc(=S)c3c2CCCC3)cc1,1.33
19,O=C(Cc1ccc(Cl)cc1)Nc1ccccc1N1CCOCC1,5.94
20,COc1ccc(OCc2cc(C(=O)N(C)Cc3cc(C)no3)no2)c(Cl)c1,-12.5
21,Nc1cccc(S(=O)(=O)NC2=NCCC2)c1,20.6

# From article PMC4336329 (PLoS ONE, 2015)
